# Measurements published in the supplement of paper PMC4723716.
# ± gives the uncertainty stated by the source. The full ranking holds about 9,900 compounds; the median of “viability index relative to DMSO control” is about 1, and the lowest 2% start at about 0.85. Some of the results follow.
# Test system: Plasmodium falciparum NF54 stage V gametocytes
# Assay: viability index relative to DMSO control (fraction); higher = less gametocyte killing
# Conditions: 2.5 µM, incubation time: 72 h
# In short: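 Viability index is the count of red-stained particles in a well divided by the plate mean of solvent-only wells. Particles of 20–70 µm2 were counted in one imaged field per well after one to two hours with 3 µl of 2.5 µM MitoTracker Red CMXRos and 0.13% saponin. Before staining, P. falciparum NF54 stage V gametocytes in serum-free medium (0.75% gametocytemia, 1.25% hematocrit, 10 µl, 1,536-well plates) were kept with compound at 2.5 µM for 72 hr at 37°C under low oxygen.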
# [1] = library set: Broad Institute DOS
Structure (SMILES),viability index [1],viability index (library set: Broad Institute Blood Stage)
COc1ccc2c3c([C@@H](CO)N(C)C[C@]33CCN(CC3)S(=O)(=O)c3cccc(F)c3)n(C)c2c1,0.981 ± 0.078,–
C[C@@H]1CCCCO[C@H](CN(C)C(=O)c2ccncc2)[C@H](C)CN([C@H](C)CO)C(=O)c2cc(NC(=O)CCC(F)(F)F)ccc2O1,1.04 ± 0.067,–
C[C@@H]1CN([C@@H](C)CO)S(=O)(=O)c2ccc(C#Cc3ccccc3F)cc2O[C@@H]1CN(C)C(=O)Cc1cccnc1,0.996 ± 0.011,–
COCC(=O)Nc1ccc2c(c1)C(=O)N(C)[C@@H]1CC[C@H](CC(=O)NC3Cc4ccccc4C3)O[C@@H]1CO2,1.1 ± 0.063,–
COc1ccccc1S(=O)(=O)N(C)C[C@H]1OCc2cn(nn2)CCCC(=O)N([C@@H](C)CO)C[C@H]1C,1.01 ± 0.027,–
C/C=C/c1ccc2n(c1=O)C[C@H]1[C@H](CO)[C@@H](C(=O)N[C@H](C)c3ccccc3)N(C(=O)c3ccccn3)[C@@H]21.C/C=C\c1ccc2n(c1=O)C[C@H]1[C@H](CO)[C@@H](C(=O)N[C@H](C)c3ccccc3)N(C(=O)c3ccccn3)[C@@H]21,1.05 ± 0.085,–
CNC[C@H]1OCCCC[C@@H](C)Oc2ccc(NS(=O)(=O)c3ccc(F)cc3)cc2C(=O)N([C@@H](C)CO)C[C@@H]1C,1.01 ± 0.012,–
C/C=C/c1ccc([C@@H]2[C@H](CO)N(C(=O)CN(C)C)C23CN(C(=O)C2CCOCC2)C3)cc1,0.967 ± 0.05,–
CCCC(=O)Nc1ccc2c(c1)C(=O)N(C)[C@@H]1CC[C@@H](CC(=O)N3CCCCC3)O[C@@H]1CO2,1.09 ± 0.14,–
CNC[C@H]1OCCCC[C@@H](C)Oc2ccc(N)cc2C(=O)N([C@H](C)CO)C[C@@H]1C,1.08 ± 0.058,–
Cc1noc(C)c1NC(=O)N(C)C[C@H]1OCc2cn(nn2)CCCC(=O)N([C@@H](C)CO)C[C@H]1C,0.957 ± 0.091,–
CCCNC(=O)N(C)C[C@H]1Oc2cc(C#C[C@H](C)O)ccc2S(=O)(=O)N([C@H](C)CO)C[C@H]1C,1.1 ± 0.051,–
COc1ccccc1NC(=O)Nc1ccc2c(c1)OC[C@@H](C)N(Cc1ccccc1Cl)C[C@@H](C)[C@H](OC)CN(C)C2=O,–,0.821 ± 0.053
C[C@@H]1CCCCO[C@@H](CN(C)Cc2ccc(Cl)c(Cl)c2)[C@@H](C)CN([C@@H](C)CO)C(=O)c2cc(NS(=O)(=O)c3cccs3)ccc2O1,1.03 ± 0.04,–
O=C(NC[C@H]1N[C@H](CO)[C@@H]1c1ccc(-c2cncnc2)cc1)C1CCCCC1,1.08 ± 0.048,–
COc1ccc(CN(C)C[C@@H]2OCCCC[C@H](C)Oc3ccc(NC(=O)C4CCCCC4)cc3C(=O)N([C@H](C)CO)C[C@@H]2C)cc1,1.16 ± 0.055,–
CO[C@@H]1CC[C@H]2CCOc3ccc(C#N)cc3C(=O)N(C)C[C@@H](c3ccccc3)CC(=O)N(C)C[C@H]1O2,1.02 ± 0.014,–
CC[C@@H]1C/C=C\CCNC(=O)C[C@H](c2ccccc2)C(=O)N1,0.948 ± 0.096,–
CC(C)[C@@H]1C/C=C/C[C@H](C)Oc2ccccc2C(=O)N(C)[C@H](C(C)C)C(=O)N1.CC(C)[C@@H]1C/C=C\C[C@H](C)Oc2ccccc2C(=O)N(C)[C@H](C(C)C)C(=O)N1,1.06 ± 0.029,–
C[C@H]1CCCCO[C@@H](CN(C)Cc2ccc(C(F)(F)F)cc2)[C@@H](C)CN([C@@H](C)CO)C(=O)c2cc(NC(=O)Nc3cccc4ccccc34)ccc2O1,1.16 ± 0.018,–
COCC(=O)N1CC2(C1)[C@H](c1ccc(-c3ccc(C)cc3)cc1)[C@@H](CO)N2C(C)=O,1.053 ± 0.0085,–
COc1ccc2c3c([nH]c2c1)[C@@H](CO)N(Cc1ccccc1)C[C@]31CN(C1)C(=O)c1ccccn1,0.982 ± 0.018,–

Structure (SMILES),viability index [1],viability index (library set: Broad Institute Blood Stage)
CN1c2ccc(C#Cc3cccnc3)cc2[C@@H]2[C@@H](CCN2C(=O)c2cccc(F)c2)[C@@H]1CO,1.09 ± 0.015,–
O=C(Nc1cccc(F)c1)N1CCCCN2[C@H](CO)[C@@H](c3ccc(C#Cc4cccnc4)cc3)[C@H]2C1,0.8437 ± 0.0061,–
C[C@@H]1CN([C@H](C)CO)C(=O)c2cc(NS(=O)(=O)c3cn(C)cn3)ccc2O[C@@H]1CN(C)S(=O)(=O)c1ccc(F)cc1,0.951 ± 0.011,–
O=C(C1CCCCC1)N1CC2(C1)[C@H](c1ccccc1)[C@@H](CO)N2CCC(F)(F)F,1.05 ± 0.046,–
O=C(CN1CCOCC1)N1CC[C@H]2[C@H](CO)Nc3ccc(-c4ccccc4F)cc3[C@H]21,0.9492 ± 0.0024,–
COc1cccc(-c2ccc([C@@H]3[C@@H]4CN(S(=O)(=O)c5cn(C)cn5)C[C@H]3N4)cc2)c1,1.11 ± 0.085,–
O=C(c1ccncc1)N1CC2(C1)[C@H](c1ccccc1)[C@H](CO)N2CC1CC1,1.09 ± 0.018,–
O=C(C[C@@H]1C=C[C@@H](NC(=O)Nc2ccccc2F)[C@H](CO)O1)NCc1ccc(-c2ccccc2)cc1,1.09 ± 0.1,–
Cc1noc(C)c1S(=O)(=O)Nc1ccc2c(c1)C(=O)N([C@@H](C)CO)C[C@@H](C)[C@H](CN(C)C(=O)Nc1cccc3ccccc13)OCCCC[C@H](C)O2,0.983 ± 0.044,–
CN1C[C@H]2[C@@H](c3ccccc31)[C@H](CO)N2S(=O)(=O)c1ccccc1,1.046 ± 0.0068,–
Cc1noc(C)c1NC(=O)Nc1ccc2c(c1)C(=O)N([C@H](C)CO)C[C@@H](C)[C@H](CN(C)Cc1ccc3c(c1)OCO3)OCCCC[C@H](C)O2,1.11 ± 0.032,–
C[C@H]1CN([C@@H](C)CO)S(=O)(=O)c2ccc(Br)cc2O[C@H]1CN(C)C(=O)Nc1ccccc1F,1.01 ± 0.046,–
C[C@@H](NC(=O)C[C@H]1CC[C@@H]2[C@@H](COc3ccc(NS(=O)(=O)c4ccc(Cl)cc4)cc3C(=O)N2C)O1)c1ccccc1,0.9973 ± 0.0017,–
C[C@H]1CN([C@@H](C)CO)C(=O)c2ccccc2-c2ccccc2CO[C@H]1CN(C)C(=O)CCC(F)(F)F,1 ± 0.23,–
O=C(Nc1ccccc1F)N1CCCCN2[C@H](C1)[C@@H](c1ccc(/C=C/c3ccccc3)cc1)[C@@H]2CO,0.929 ± 0.011,–
C[C@H]1CCCCO[C@H](CN(C)C(=O)Nc2ccc3c(c2)OCO3)[C@@H](C)CN([C@@H](C)CO)C(=O)c2cc(NS(=O)(=O)c3ccc(F)cc3)ccc2O1,1.04 ± 0.093,–
O=C(c1ccncc1)N1CC2(C1)[C@H](c1ccccc1)[C@@H](CO)N2CC1CC1,1.08 ± 0.016,–
CO[C@@H]1CN(C)C(=O)c2ccc(NC(=O)Nc3ccccc3F)cc2OC[C@H](C)N(CC2CC2)C[C@@H]1C,1.001 ± 0.0029,–
O=C(C[C@H]1CC[C@H]2[C@@H](COC[C@@H](O)CN2C(=O)c2ccncc2)O1)Nc1ccc(-c2ccccc2)cc1,1.1013 ± 0.00074,–
N#C[C@@H]1[C@H](c2ccc(C3=CCCCC3)cc2)[C@H](CO)N1C(=O)Nc1ccccc1F,1.01 ± 0.069,–
CN(C)C(=O)c1ccc(-c2ccc3c(c2)[C@H]2[C@H](CCN2C(=O)C2CCCC2)[C@@H](CO)N3C)cc1,0.9489 ± 0.0085,–
CN(C)C(=O)c1cccc(-c2ccc3c(c2)[C@@H]2[C@@H](CCN2C(=O)Cc2ccccc2)[C@@H](CO)N3)c1,1.04 ± 0.025,–

Structure (SMILES),viability index [1],viability index (library set: Broad Institute Blood Stage)
COc1ccccc1CN1[C@@H]2c3ccc(C4=CCCC4)c(=O)n3C[C@H]1[C@H](CO)[C@H]2C(=O)N(C)C,1.05 ± 0.028,–
Cc1ccc(S(=O)(=O)NCC[C@H]2CC[C@@H](NC(=O)c3cccnc3)[C@@H](CO)O2)cc1,1.16 ± 0.032,–
C[C@@H]1CN([C@H](C)CO)S(=O)(=O)c2ccc(C#Cc3ccccc3F)cc2O[C@H]1CN(C)C(=O)Cc1cccnc1,0.963 ± 0.02,–
COCC(=O)Nc1ccc2c(c1)[C@H]1C[C@@H](CC(=O)N[C@@H](C)c3ccccc3)O[C@@H](CO)[C@H]1O2,1.083 ± 0.01,–
CN1C(=O)c2cc(NC(=O)C3CCOCC3)ccc2OC[C@H]2O[C@H](CC(=O)NCCc3ccncc3)CC[C@@H]21,1.14 ± 0.095,–
CO[C@H]1CN(C)C(=O)c2ccc(NC(=O)c3ccno3)cc2OC[C@H](C)N(S(C)(=O)=O)C[C@@H]1C,1.07 ± 0.034,–
CO[C@H]1CN(C)C(=O)c2ccc(NC(=O)c3nc4ccccc4s3)cc2OC[C@@H](C)N(Cc2cccnc2)C[C@H]1C,1.11 ± 0.022,–
COc1ccc2c3c([nH]c2c1)[C@H](CO)NC[C@]31CN(C1)C(=O)Nc1ccc2OCOc2c1,1.03 ± 0.021,–
CO[C@H]1CN(C)C(=O)c2ccc(NC(=O)Nc3cc(F)ccc3F)cc2OC[C@H](C)N(C(=O)c2ccccn2)C[C@@H]1C,1.13 ± 0.11,–
C[C@@H](NC(=O)C[C@@H]1CC[C@H]2[C@@H](COC[C@@H](O)CN2C(=O)Nc2cccc(Cl)c2)O1)c1ccccc1,1.11 ± 0.047,–
C[C@H](CO)N1C[C@H](C)[C@@H](CN(C)C(=O)Nc2ccc3c(c2)OCO3)OCCCC[C@H](C)Oc2ccc(NS(=O)(=O)c3ccc(F)cc3)cc2C1=O,1.12 ± 0.1,–
Cn1cnc(CCNC(=O)C[C@H]2CC[C@H]3[C@@H](COC[C@@H](O)CN3C(=O)Nc3ccc(C(F)(F)F)cc3)O2)c1,1.09 ± 0.031,–
CN1C(=O)c2cc(NC(=O)Nc3ccccc3Cl)ccc2OC[C@H]2O[C@H](CC(=O)NCCCN3CCOCC3)CC[C@H]21,1.16 ± 0.066,–
O=C(NCCN1CCCC1)[C@@H]1[C@@H](CO)[C@@H]2Cn3c(cccc3=O)[C@@H]2N1Cc1ccccn1,1.04 ± 0.045,–
CCCNC(=O)N1[C@H](CNC(=O)c2cccc(F)c2)[C@@H](c2ccccc2)[C@@H]1CO,0.9577 ± 0.0012,–
CO[C@H]1CN(C)C(=O)c2cc(NC(=O)Nc3c(C)noc3C)ccc2OC[C@@H](C)NC[C@@H]1C,1.04 ± 0.062,–
CCC(=O)Nc1ccc2c(c1)C(=O)N(C)C[C@@H](OC)[C@H](C)CN(C(=O)Cc1cccnc1)[C@@H](C)CO2,1.13 ± 0.043,–
C[C@@H]1CCCCO[C@@H](CN(C)C(=O)CCCN(C)C)[C@H](C)CN([C@@H](C)CO)C(=O)c2cc(NC(=O)Nc3ccc4c(c3)OCO4)ccc2O1,1.15 ± 0.03,–
COc1cccc(C#Cc2ccc([C@H]3[C@@H](CO)N4C(=O)CN(C(=O)Cc5cccnc5)C[C@@H]34)cc2)c1,1.03 ± 0.1,–
O=C(NCC[C@@H]1CC[C@@H](NC(=O)c2ccccc2F)[C@@H](CO)O1)c1cnccn1,0.976 ± 0.13,–
C[C@@H]1C(=O)N[C@@H](c2ccccc2)C/C=C/C[C@H](C)Oc2ccccc2C(=O)N1C.C[C@@H]1C(=O)N[C@@H](c2ccccc2)C/C=C\C[C@H](C)Oc2ccccc2C(=O)N1C,1.06 ± 0.06,–
